According to PubChem BioAssay AID463173 (ICCB-Longwood Screening Facility, Harvard Medical School, 2010):
Hit rate of the full screen: of about 52,000 compounds, about 1,700 (3.3%) were called active. Cut-off read from the data, not from the text of the source: active = survival mostly below about 52% (no sharp cut-off); inactive = mostly above about 56%. The list shows a part of the results.

system: Wild type; test: growth inhibition of S. aureus wild type versus tarO mutant, primary screen, teichoic acid synthesis inhibitors, RN4220, OD600 (AID 463173); details: S. aureus RN4220 wild type/DeltatarO growth, OD600, 18 h, stronger effect = lower value, screened at 18.75 µg/mL (by protocol)

Structure (SMILES) | survival
Cc1nn(CCCC(=O)NCCc2ccc(Cl)cc2)c(=O)c2nn(-c3ccccc3)c(C)c12 | inactive: 77%
Cc1ccc(-c2cc(NC(=O)COc3c(C)cc(C)cc3C)on2)cc1 | inactive: 78%
O=C(NCc1ccccc1F)c1cccc(NC(=O)N2CCSc3ncccc32)c1 | inactive: 87%
CCn1c(=O)c(C(=O)Nc2cc(OC)c(OC)c(OC)c2)nc2ccccc21 | inactive: 76%
COc1ccc(C2CC(=O)c3cc(-c4nc(-c5cccc([N+](=O)[O-])c5)cs4)c(=O)n(-c4ccccc4C)c3C2)cc1 (stereo not drawn) | inactive: 134%
CCOCCc1nn2c(=O)cc(COC(=O)c3ccc(NC(=O)c4ccc(F)cc4)cc3)nc2s1 | active: 0%
CCc1ccc(C2CC(=O)N(c3cccc(C(F)(F)F)c3)C3=C2C(=O)OC3)cc1 (stereo not drawn) | inactive: 73%
COc1ccccc1C(=O)NCCc1csc(-c2ccc(C(F)(F)F)cc2)n1 | inactive: 131%
COc1cc(NC(=O)Cn2c(=O)n(CC3CCCO3)c(=O)c3cc(OC)c(OC)cc32)cc(OC)c1 (stereo not drawn) | inactive: 67%
Cc1ccc(C)c(NC2=C(c3ccc(C(F)(F)F)cc3)C(=O)c3ccccc32)c1 | inactive: 67%
O=C(NCc1ccc2c(c1)OCO2)c1cccnc1 | inactive: 101%
CC(=O)N1CCc2cc(CNC(=O)Nc3ccccc3C(F)(F)F)ccc21 | inactive: 71%
OC1N(CN2CCN(c3ccccc3F)CC2)c2ccccc2C12OCCCO2 (stereo not drawn) | inactive: 104%
COc1ccc2c(CNC3CCC(C)CC3)c(C(=O)O)n(Cc3ccccc3)c2c1 (stereo not drawn) | inactive: 89%
Cc1cccc(Cn2nnc3c(=O)[nH]c(C4CCCN(C(=O)c5ccc(C(C)(C)C)cc5)C4)nc32)c1 (stereo not drawn) | inactive: 23%
CCCN1CCCc2cc(CN(CCCN3CCOCC3)C(=O)Nc3ccc(OCC)cc3)ccc21 | inactive: 64%
Cc1ccc(-c2cn3nc(N4CCC(C(=O)Nc5ccccc5C)CC4)sc3n2)cc1 | inactive: 77%
CC(C(=O)NCc1ccco1)N(C(=O)c1ccc(Cl)nc1)C1CCCCC1 (stereo not drawn) | inactive: 113%
CCOc1ccccc1CNC(=O)C1CCN(Cc2cc3ccccc3n2Cc2ccccc2)CC1 | inactive: 75%
Cn1c2ccccc2c2c(C(=O)N3CCN(c4cccc(C(F)(F)F)c4)CC3)cn(C3CCCCC3)c(=O)c21 | inactive: 89%
CCNC(=S)NCc1ccc2c(c1)OCO2 | inactive: 107%
CCC(C(=O)Nc1cc(OC)ccc1OC)n1nc(-c2ccccc2)c2c(c1=O)CCCC2 (stereo not drawn) | inactive: 85%

Structure (SMILES) | survival
CN(C)S(=O)(=O)N(CC(=O)NCCSc1ccc(Cl)cc1)c1ccccc1 | inactive: 66%
c1ccc2c(c1)nc1n2CCN1CCNC1CCCCC1 | inactive: 124%
NCC(O)CN1CCN(Cc2ccccc2)CC1 (stereo not drawn) | inactive: 105%
Cc1ccc2oc(C(=O)Nc3ccc(S(=O)(=O)Nc4ncccn4)cc3)cc(=O)c2c1 | inactive: 97%
O=C(COCc1cc(-c2ccc3c(c2)OCO3)on1)N1CCN(c2cccc(C(F)(F)F)c2)CC1 | inactive: 90%
Cc1cc(C)c2oc(C(=O)Nc3nc4ccc(Cl)cc4s3)cc(=O)c2c1 | inactive: 81%
Cc1ccc(-n2ccnc(NCc3cccs3)c2=O)cc1C | inactive: 131%
Cc1cccc(Cn2c(SCc3ccc(C(=O)NCc4ccccc4F)cc3)nc3cccnc32)c1 | inactive: 88%
CN1C(C(=O)NC(C)(C)C)=CC(c2ccc3c(c2)OCO3)=NS1(=O)=O | inactive: 84%
COc1cccc(NS(=O)(=O)c2ccc3[nH]cc(C(=O)NCCc4ccc(C)cc4)c(=O)c3c2)c1 | inactive: 124%
CCCS(=O)(=O)c1nc(S(=O)(=O)c2ccc(C)cc2)c(NC(C)c2ccccc2)s1 (stereo not drawn) | inactive: 129%
O=C(Nc1ccc2[nH]ncc2c1)/C(=C/c1ccco1)NC(=O)c1ccccc1 | inactive: 111%
COc1ccc2oc(=O)c(-c3nc4ccc(C)cc4[nH]3)cc2c1 | inactive: 94%
O=C(COc1ccccc1F)Nc1ccc2nc(SCc3ccccc3)sc2c1 | inactive: 88%
CCC(=O)N1CCc2cc(S(=O)(=O)NCCC(=O)Nc3cccc(SC)c3)ccc21 | inactive: 79%
CCOC(=O)c1cc(-c2ccc(F)cc2)n(CCC(=O)NCc2ccc(C)cc2)c1C | inactive: 73%
O=C(c1cc2ccccc2oc1=O)N(Cc1ccc(F)cc1)C1CC1 | inactive: 102%
Cc1ccc(-n2ncc(C(=O)N3CCN(c4cccc(C)c4C)CC3)c2C2CCNCC2)c(C)c1 | inactive: 84%
COc1ccc(Br)cc1CC1C(=O)Nc2ccccc21 (stereo not drawn) | inactive: 70%
COc1ccccc1NC(=O)C1=C(C)Nc2nc(SCc3ccccc3Cl)nn2C1c1cccnc1 (stereo not drawn) | inactive: 173%
CN(C(=O)NCc1noc2ccccc12)c1cccc(Cl)c1 | inactive: 86%
CCCN1C(C(=O)c2ccccc2)=C(OC(=O)C(C)(C)C)c2ccccc2S1(=O)=O | inactive: 86%

Structure (SMILES) | survival
Cc1ccc(NC(=O)CN2CCN(C3CCCCC3)C(=O)C2=O)cc1C | inactive: 82%
Cc1ccc2c(c1)sc1nc(=O)n(-c3cccc(Cl)c3)c(=O)n12 | inactive: 70%
Cc1cc(Cl)ccc1NS(=O)(=O)c1cc2[nH]c(=O)c(=O)[nH]c2cc1C | inactive: 78%
COc1ccc(-c2nc(N)n(C(C)=O)n2)cc1 | inactive: 107%
Cc1ccc(-n2c(=O)[nH]c3sc4c(c3c2=O)CCNC4)cc1C | inactive: 65%
CCCCc1nn2c(C)c(-c3ccc(OCC)cc3)nc2s1 | inactive: 98%
CCOC(=O)C1CCN(C(=O)Cn2nc(CC)n3c(cc4occc43)c2=O)CC1 | inactive: 79%
Cc1ccc(NC(c2cccc(Cl)c2)c2nnc(-c3ccccc3)o2)cc1F (stereo not drawn) | inactive: 90%
O=C(Cn1ncc2c3ccccc3n(Cc3cccc(Cl)c3)c2c1=O)N1CCCCC1 | inactive: 94%
COc1ccc(CN2C(=O)c3ccccc3C2C(=O)NC2CCCCCC2)c(OC)c1 (stereo not drawn) | inactive: 90%
Cc1ccc(Cl)cc1NC(=O)C(=O)NCCc1sc(-c2ccc(F)cc2)nc1C | inactive: 73%
COc1ccc(CC(=O)Nc2sc3c(c2C(=O)Nc2c(C)cccc2C)CCCCC3)cc1 | inactive: 90%
COc1ccc(NC(=O)CSC2=Nc3ccccc3C3=NC(CC(=O)NCc4ccc(F)cc4)C(=O)N23)cc1 (stereo not drawn) | inactive: 66%
CCc1ccc(-c2nn(CC(=O)NC3CCCCC3)c3c2cnc2ccc(OC)cc23)cc1 | inactive: 73%
COC(=O)Cc1ccc2c3ccccc3n(C)c2c1 | inactive: 112%
COc1cccc(NC(=O)/C(C#N)=C\c2cn(Cc3ccc(Cl)cc3)c3ccccc23)c1 | inactive: 88%
Cc1cccc(S(=O)(=O)c2cn(Cc3ccccc3)c3cc(N4CCCCC4C)c(F)cc3c2=O)c1 (stereo not drawn) | inactive: 71%
CCCOc1ccc(C(=O)Nc2c(C(=O)c3ccc(C)cc3)oc3ccccc23)cc1 | inactive: 54%
COc1ccc(CNC(=O)Cn2c(=O)oc3cc(S(=O)(=O)N4CCCC4)ccc32)cc1 | inactive: 91%
COc1ccc2c(C)c(CCC(=O)NCCc3ccc(Cl)cc3)c(=O)oc2c1 | inactive: 69%
CCCCc1ccc(C(=O)N/C(=C\c2ccc(C)cc2)C(=O)NC2CCCCC2)cc1 | inactive: 68%
Cc1cc(C(F)F)n2nc(C(=O)Nc3ccc(F)c(Cl)c3)nc2n1 | inactive: 83%

Structure (SMILES) | survival
Cc1ccc(Cl)cc1N1CCN(C(=O)c2ccc(C)c(-n3c(C)nc4cccnc43)c2)CC1 | inactive: 126%
CCc1nc2ccc(C(=O)N3CCN(c4ccc(Cl)cc4)CC3)cc2nc1CC | inactive: 73%
CCOc1ccc(C(=O)N(CC#N)CC#N)cc1 | inactive: 110%
NNC(=O)CNC(=O)c1cccs1 | inactive: 125%
O=C(CC1N=C2c3ccccc3N=C(SCc3ccccc3F)N2C1=O)NCc1cccs1 (stereo not drawn) | inactive: 75%
COc1cccc(Nc2nc(-c3ccccc3)c3cc(C)ccc3n2)c1 | active: 9%
Cc1cccc(CNC(=O)c2ccc(Cn3c(=O)c4cccn4c4cccnc43)cc2)c1 | inactive: 82%
COc1cc(C2CC(=O)Nc3c2c(=O)nc2c(C)cccn32)cc(OC)c1OC (stereo not drawn) | inactive: 75%
CCS(=O)(=O)N1CCN(C(=O)c2ccc(OC)cc2)CC1 | inactive: 100%
CCN(CCCNC(=O)c1cc2cc3ccc(OC)cc3nc2s1)c1ccccc1 | inactive: 90%
Cc1ccc(NC(=O)C(Cc2ccccc2)NS(=O)(=O)c2cccc3nsnc23)c(C)c1 (stereo not drawn) | inactive: 123%
CCN1CCC(N(Cc2ccc3c(c2)OCO3)C(=O)Nc2ccc(Br)c(C)c2)CC1 | inactive: 73%
Cc1nn2c(-c3cccc(NC(=O)c4ccc(Cl)cc4)c3)nnc2c2ccccc12 | inactive: 113%
CCS(=O)(=O)N1CCc2cc(C(=O)Nc3cc(Cl)ccc3C)ccc21 | inactive: 86%
C=CCNC(=O)c1cccc(Br)c1 | inactive: 104%
COc1ccc(-n2c(-c3ccco3)nc3c(cnn3-c3ccc(C)cc3)c2=O)cc1 | inactive: 78%
CCOC(=O)c1c(C)[nH]c(CCC(=O)Nc2ccccc2C(=O)OC)c1C | inactive: 67%
CC(C)C(=O)Nc1ccc2nc(SCCOc3ccccc3)sc2c1 | inactive: 93%
CCn1c(=O)n(CC)c2cc(N3CCCCC3)c(NC(=O)Nc3cc(Cl)ccc3OC)cc21 | inactive: 55%
COc1ccc(CCNC(=O)CCS(=O)(=O)c2ccc3c(c2)oc(=O)n3C)cc1OC | inactive: 125%
CCCCOCc1cc(CN2CCN(c3cccc(Cl)c3)CC2)c(O)c2ncccc12 | inactive: 127%
Cc1ccc(N2CCN(C(=O)c3cn(C)c4ccc(S(=O)(=O)N(C)C5CCCCC5)cc4c3=O)CC2C)cc1 (stereo not drawn) | inactive: 85%
